# Measurements: the supplement of paper PMC8728848
# The other results are listed elsewhere or left out.
# Columns and labels:
# Experiment in all cases: glycan array binding signal (z-score within array); higher = stronger binding
# Settings in all cases: glycan notation: IUPAC condensed, linker removed
# Kdn(a2-3)Gal(b1-4)Glc = target: Kdn(a2-3)Gal(b1-4)Glc
# Method in brief: (§1)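 Glycan array data were curated from 3228 arrays in the Consortium for Functional Glycomics database and kept only where the protein sequence was available. Glycan names were converted to IUPAC-condensed notation, and columns mapping to the same glycan were averaged. The binding signal is a within-array Z-score, averaged across arrays of the same protein sequence at different concentrations or buffers and across linkers. Negative Z-scores can be read as non-binding.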
# Kdn(a2-3)Gal(b1-4)GlcNAc = target: Kdn(a2-3)Gal(b1-4)GlcNAc
# Method in brief: as §1
# [1] = target: Kdn(a2-3)Gal(b1-4)[Fuc(a1-3)]GlcNAc
# Method in brief: as §1
# Kdn(a2-6)Gal(b1-4)GlcNAc = target: Kdn(a2-6)Gal(b1-4)GlcNAc
# Method in brief: as §1
# [2] = target: Man(a1-2)Man(a1-2)Man(a1-3)Man
# Method in brief: as §1
# [3] = target: Man(a1-2)Man(a1-2)Man(a1-6)[Man(a1-3)]Man
# Method in brief: as §1
# Man(a1-2)Man(a1-3)Man = target: Man(a1-2)Man(a1-3)Man
# Method in brief: as §1
# [4] = target: Man(a1-2)Man(a1-3)[Man(a1-2)Man(a1-6)]Man
# Method in brief: as §1
# [5] = target: Man(a1-2)Man(a1-3)[Man(a1-2)Man(a1-6)]Man(a1-6)[Man(a1-2)Man(a1-2)Man(a1-3)]Man
# Method in brief: as §1
# [6] = target: Man(a1-2)Man(a1-3)[Man(a1-2)Man(a1-6)]Man(a1-6)[Man(a1-2)Man(a1-2)Man(a1-3)]Man(b1-4)GlcNAc(b1-4)GlcNAc
# Method in brief: as §1
# [7] = target: Man(a1-2)Man(a1-3)[Man(a1-6)]Man(a1-6)[Man(a1-2)Man(a1-3)]Man(b1-4)GlcNAc(b1-4)GlcNAc
# Method in brief: as §1
# [8] = target: Man(a1-2)Man(a1-6)[Man(a1-3)]Man(a1-6)[Man(a1-2)Man(a1-2)Man(a1-3)]Man
# Method in brief: as §1
# [9] = target: Man(a1-2)Man(a1-6)[Man(a1-3)]Man(a1-6)[Man(a1-2)Man(a1-2)Man(a1-3)]Man(b1-4)GlcNAc(b1-4)GlcNAc
# Method in brief: as §1
# Man(a1-3)[Man(a1-6)]Man = target: Man(a1-3)[Man(a1-6)]Man
# Method in brief: as §1
# [10] = target: Man(a1-3)[Man(a1-6)]Man(a1-6)[Man(a1-2)Man(a1-3)]Man(b1-4)GlcNAc(b1-4)GlcNAc
# Method in brief: as §1
# [11] = target: Man(a1-3)[Man(a1-6)]Man(a1-6)[Man(a1-3)]Man
# Method in brief: as §1
# [12] = target: Man(a1-3)[Man(a1-6)]Man(a1-6)[Man(a1-3)]Man(b1-4)GlcNAc(b1-4)GlcNAc
# Method in brief: as §1
# [13] = target: Man(a1-3)[Man(a1-6)]Man(b1-4)GlcNAc(b1-4)GlcNAc
# Method in brief: as §1
# [14] = target: Man(a1-3)[Man(a1-6)]Man(b1-4)GlcNAc(b1-4)[Fuc(a1-6)]GlcNAc
# Method in brief: as §1
# Man(a1-6)Man = target: Man(a1-6)Man
# Method in brief: as §1
# Man(b1-4)GlcNAc = target: Man(b1-4)GlcNAc
# Method in brief: as §1
# MurNAc(b1-4)GlcNAc = target: MurNAc(b1-4)GlcNAc
# Method in brief: as §1
# Neu5Ac(a2-3)Gal = target: Neu5Ac(a2-3)Gal
# Method in brief: as §1
# [15] = target: Neu5Ac(a2-3)Gal(b1-3)GalNAc
# Method in brief: as §1
# [16] = target: Neu5Ac(a2-3)Gal(b1-3)GalNAc(b1-3)Gal(a1-4)Gal(b1-4)Glc
# Method in brief: as §1
# [17] = target: Neu5Ac(a2-3)Gal(b1-3)GalNAc(b1-4)[Neu5Ac(a2-3)]Gal(b1-4)Glc
# Method in brief: as §1
# [18] = target: Neu5Ac(a2-3)Gal(b1-3)GalNAc(b1-4)[Neu5Ac(a2-8)Neu5Ac(a2-3)]Gal(b1-4)Glc
# Method in brief: as §1
# [19] = target: Neu5Ac(a2-3)Gal(b1-3)GalNAc6S
# Method in brief: as §1
# [20] = target: Neu5Ac(a2-3)Gal(b1-3)GlcNAc
# Method in brief: as §1
# [21] = target: Neu5Ac(a2-3)Gal(b1-3)GlcNAc(b1-2)Man
# Method in brief: as §1
# [22] = target: Neu5Ac(a2-3)Gal(b1-3)GlcNAc(b1-2)Man(a1-3)[GlcNAc(b1-4)][Neu5Ac(a2-3)Gal(b1-3)GlcNAc(b1-2)Man(a1-6)]Man(b1-4)GlcNAc(b1-4)GlcNAc
# Method in brief: as §1
# [23] = target: Neu5Ac(a2-3)Gal(b1-3)GlcNAc(b1-2)Man(a1-3)[Neu5Ac(a2-3)Gal(b1-3)GlcNAc(b1-2)Man(a1-6)]Man(b1-4)GlcNAc(b1-4)GlcNAc
# Method in brief: as §1
# [24] = target: Neu5Ac(a2-3)Gal(b1-3)GlcNAc(b1-3)Gal(b1-3)GlcNAc
# Method in brief: as §1
# [25] = target: Neu5Ac(a2-3)Gal(b1-3)GlcNAc(b1-3)Gal(b1-4)GlcNAc
# Method in brief: as §1
# [26] = target: Neu5Ac(a2-3)Gal(b1-3)GlcNAc(b1-3)GalNAc
# Method in brief: as §1
# [27] = target: Neu5Ac(a2-3)Gal(b1-3)GlcNAc(b1-4)Gal(b1-4)Glc
# Method in brief: as §1
# [28] = target: Neu5Ac(a2-3)Gal(b1-3)GlcNAc(b1-6)GalNAc
# Method in brief: as §1
# [29] = target: Neu5Ac(a2-3)Gal(b1-3)GlcNAc6S
# Method in brief: as §1
binder,measurement,setting,value
PX15618A-bth-503-24-503 (Bacteroides thetaiotaomicron) (protein) NKSEDKLSGDDFWAQGNETNAEAFLLSIYNSFRNATMSQRPFLTYSGDMRCAPITAYSTGDKYVAYLANNDMGELRNTYPDDARGGLIMQWDVFYTAIQDANILLAEIDKVPGMDELKRSRFKAEAIFMRSLSYFFIVRAFGDVPYYTNAYNEAPLPRTNMVIVLQNCLADLQPLLDDDPGAEVLPWSYSSYSSKGIRASRGSVIALMMHINLWLVQFDAQNKEQYYRNVVSLGEELERNNGAYSLLDINRSSVIFAGGSDEGLFEIAQNINFNEIFMMNAKFSDNVSYSCLNKSMPLFCYSGDYLMTLFPMYEDDARKELWFDEKIYSTSVSSSAPKEIKKFWNIDTYGNGTITSNSGNQIVFRYAGALLLYAEALAALGTNDTKACELLNRVRNRAHASEINTSGSELMDAIFWERCRELIGEGHYYYDLVRTGKVYNRNYCMNPMTRTNFNVGAWTWPIHRNALKNNTQIGLNLFWE,glycan array binding signal (z-score),Kdn(a2-3)Gal(b1-4)Glc,0.422
same,glycan array binding signal (z-score),Kdn(a2-3)Gal(b1-4)GlcNAc,0.017
same,glycan array binding signal (z-score),[1],-0.505
same,glycan array binding signal (z-score),Kdn(a2-6)Gal(b1-4)GlcNAc,0.229
same,glycan array binding signal (z-score),[2],-0.357
same,glycan array binding signal (z-score),[3],-0.171
same,glycan array binding signal (z-score),Man(a1-2)Man(a1-3)Man,-0.477
same,glycan array binding signal (z-score),[4],-0.505
same,glycan array binding signal (z-score),[5],-0.301
same,glycan array binding signal (z-score),[6],-1.01
same,glycan array binding signal (z-score),[7],-0.835
same,glycan array binding signal (z-score),[8],-0.076
same,glycan array binding signal (z-score),[9],0.419
same,glycan array binding signal (z-score),Man(a1-3)[Man(a1-6)]Man,0.002
same,glycan array binding signal (z-score),[10],-0.281
same,glycan array binding signal (z-score),[11],-0.384
same,glycan array binding signal (z-score),[12],0.524
same,glycan array binding signal (z-score),[13],-0.265
same,glycan array binding signal (z-score),[14],-0.042
same,glycan array binding signal (z-score),Man(a1-6)Man,-0.052
same,glycan array binding signal (z-score),Man(b1-4)GlcNAc,0.123
same,glycan array binding signal (z-score),MurNAc(b1-4)GlcNAc,0.506
same,glycan array binding signal (z-score),Neu5Ac(a2-3)Gal,-0.851
same,glycan array binding signal (z-score),[15],-0.436
same,glycan array binding signal (z-score),[16],-0.355
same,glycan array binding signal (z-score),[17],0.507
same,glycan array binding signal (z-score),[18],-0.27
same,glycan array binding signal (z-score),[19],-0.627
same,glycan array binding signal (z-score),[20],-0.396
same,glycan array binding signal (z-score),[21],-0.001
same,glycan array binding signal (z-score),[22],-0.463
same,glycan array binding signal (z-score),[23],-0.258
same,glycan array binding signal (z-score),[24],-0.591
same,glycan array binding signal (z-score),[25],-0.339
same,glycan array binding signal (z-score),[26],-0.726
same,glycan array binding signal (z-score),[27],-0.638
same,glycan array binding signal (z-score),[28],-0.329
same,glycan array binding signal (z-score),[29],0.052
